Measured values: PubChem BioAssay (NCI)
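Values below derive from 48-hour exposures of cells grown in 96-well plates, with endpoints linearly interpolated between the two concentrations bracketing the appropriate inhibition level. Here, GI50 denotes the concentration required for 50% inhibition of growth. Definition used: TGI = concentration required for complete inhibition of growth.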

System: NCI-H322M lung
Test: NCI anticancer screen, dose series, 48 h

For `CC(=O)Nc1ccc(NC(=O)Nc2cccc(-c3nc(-c4ccc(NC(=O)c5cccnc5)cc4Cl)no3)c2)cc1C(F)(F)F`, which GI50 is on record?
The GI50 was 741 nM.

What about the TGI of the same compound?
The TGI was 2630 nM.
